# According to article PMC4336329 (PLoS ONE, 2015):
# Out of some 310,000 compounds screened, about 2,200 (0.71%) showed an effect of 50% or more. Effects have a minus sign here. Some of the results follow.
# Target: human ether-à-go-go-related gene (hERG) potassium channel (human, UniProt Q12809)
# Assay: primary screen, population patch clamp on CHO cells stably expressing hERG
# Chain of human ether-à-go-go-related gene (hERG) potassium channel (Q12809 whole entry, looked up): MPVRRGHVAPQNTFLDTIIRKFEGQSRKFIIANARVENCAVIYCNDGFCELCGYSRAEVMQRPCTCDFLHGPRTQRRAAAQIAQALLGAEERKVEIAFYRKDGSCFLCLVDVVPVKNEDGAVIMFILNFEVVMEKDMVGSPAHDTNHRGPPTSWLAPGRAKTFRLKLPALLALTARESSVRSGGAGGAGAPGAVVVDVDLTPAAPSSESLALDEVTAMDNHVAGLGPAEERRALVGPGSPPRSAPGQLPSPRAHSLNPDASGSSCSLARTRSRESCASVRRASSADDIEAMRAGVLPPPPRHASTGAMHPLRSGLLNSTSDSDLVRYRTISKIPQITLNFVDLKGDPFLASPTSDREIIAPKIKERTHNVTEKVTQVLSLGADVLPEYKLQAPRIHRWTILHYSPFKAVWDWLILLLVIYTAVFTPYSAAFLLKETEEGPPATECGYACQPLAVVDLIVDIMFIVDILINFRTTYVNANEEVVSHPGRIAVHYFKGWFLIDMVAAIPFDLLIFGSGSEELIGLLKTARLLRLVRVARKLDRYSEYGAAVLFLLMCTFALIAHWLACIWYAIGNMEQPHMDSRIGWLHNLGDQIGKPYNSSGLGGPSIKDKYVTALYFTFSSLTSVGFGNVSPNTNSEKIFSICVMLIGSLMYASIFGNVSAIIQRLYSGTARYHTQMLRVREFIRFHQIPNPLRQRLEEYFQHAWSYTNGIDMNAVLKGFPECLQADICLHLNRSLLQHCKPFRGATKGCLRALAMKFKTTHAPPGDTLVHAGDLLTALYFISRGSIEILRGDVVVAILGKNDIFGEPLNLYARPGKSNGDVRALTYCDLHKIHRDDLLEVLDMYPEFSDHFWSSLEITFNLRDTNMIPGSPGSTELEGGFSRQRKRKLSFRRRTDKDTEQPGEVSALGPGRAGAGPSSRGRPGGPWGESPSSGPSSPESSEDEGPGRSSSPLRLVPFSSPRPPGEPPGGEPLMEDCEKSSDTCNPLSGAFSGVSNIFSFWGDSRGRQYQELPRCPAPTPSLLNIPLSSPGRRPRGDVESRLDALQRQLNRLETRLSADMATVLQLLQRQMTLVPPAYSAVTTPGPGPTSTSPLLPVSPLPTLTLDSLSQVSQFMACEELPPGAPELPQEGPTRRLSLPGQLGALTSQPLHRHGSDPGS
row,Compound,"hERG current change (%, negative = inhibition) at 1uM [%]"
1,Cc1ccccc1C(=O)Nc1scc(-c2ccc(Br)cc2)c1C(=O)O,7.02
2,CC(/C=N/NC(=O)c1cccs1)=C\c1ccco1,9.06
3,COc1cccc(Oc2ccc(C(F)(F)F)cc2NC(=O)CCc2nc3ccccc3c(=O)[nH]2)c1,9.83
4,CCN(CC1CCCO1)C(=O)CCc1nnc(Cc2ccc3c(c2)OCO3)o1 (stereo not drawn),31.9
5,CCOC(=O)c1ccc(Nc2nc(=O)c3cccnc3s2)cc1,1.17
6,CC(C)OP(=O)(c1ccc(N(C)C)cc1)C(O)c1ccc(C(C)C)cc1 (stereo not drawn),17.5
7,CCOC(=O)c1ccccc1NC(=O)CSc1cccc[n+]1[O-],5.46
8,COc1ccc(NC(=S)Nc2ccc3snnc3c2)cc1,19.5
9,NC(=O)C1CCN(Cc2nc(-c3ccccc3)no2)CC1,-0.397
10,C=CCn1cccc(C(=O)Nc2ccc(OC)cc2)c1=O,7.04
11,O=C(c1ccccc1)c1cccn1CC(=O)N1CCN(c2ccc(F)cc2)CC1,1.84
12,CN(C)CCN(C(=O)c1ccc2ccccc2c1)c1nc2ccc(Br)cc2s1.Cl,8.35
13,CCCN(CC(=O)Nc1cccc(S(N)(=O)=O)c1)CC(=O)Nc1ccc(F)c(F)c1F,6.38
14,CCOC(=O)c1sc2nc(C)nc(SC(C)C(=O)N(C)c3ccccc3)c2c1C (stereo not drawn),2.83
15,COc1ccc(NC(=O)Cc2c(F)cccc2Cl)c(OC)c1,15.4
16,COc1ccc(C(=O)/C=C/Nc2c(C)n(C)n(-c3ccccc3)c2=O)c(OC)c1,5.94
17,COCCn1c(=O)[nH]c(=O)c2c1nc(-c1ccc(-c3ccc(Cl)cc3[N+](=O)[O-])o1)n2Cc1ccccc1,-9.48
18,CCCc1c(C)[nH]c2ccccc2c1=O,6.47
19,Cc1cc(C)cc(NC(=O)CSc2nnnn2-c2cccnc2)c1,13
20,Cn1c(SCC(=O)Nc2nccs2)nnc1C12CC3CC(CC(C3)C1)C2,1.76
21,COC(=O)[C@@H](Cc1c[nH]c2ccccc12)NC(=O)CCC(=O)c1ccc(Br)cc1,3.1
22,COC(=O)[C@@]1(C)CC[C@]2(C)CC[C@@]3(C)C(=CC(=O)C4[C@@]5(C)CC[C@H](O)C(C)(C)[C@@H]5CC[C@]43C)[C@H]2C1 (stereo partly drawn),17.7

row,Compound,"hERG current change (%, negative = inhibition) at 1uM [%]"
1,O=C(Nc1ccc2c(c1)OCO2)c1ccc2c(c1)OCO2,17
2,COCCNC(=O)c1cccc2c1-c1ccccc1C2=O,5.49
3,O=c1[nH]c(Nc2ccccc2)cc2ccccc12,4.01
4,COc1cc(C2CC(c3cccs3)=NN2C(=O)CCl)ccc1OC(F)F (stereo not drawn),11.9
5,CC(NS(=O)(=O)c1ccc2c(c1)CC(=O)N2C)c1ccccc1 (stereo not drawn),12.4
6,COc1cccc2c(=O)c(C(=O)O)c[nH]c12,8.52
7,O=C(/C=C/c1c(Cl)nc2ccccn12)N1CCN(c2ccc(F)cc2)CC1,-14.3
8,Cc1cc(C)cc(NC(=O)CSc2nnc(C3CC3)n2CC2CCCO2)c1 (stereo not drawn),-1.15
9,O=C(Nc1ccccc1)C1CC(O)CN1S(=O)(=O)c1ccc([N+](=O)[O-])cc1 (stereo not drawn),10.4
10,CCc1nnc(NC(=O)CSc2nnc(C3CCCCC3)n2-c2cccc(Cl)c2)s1,4.97
11,Cc1ccc2oc(=O)n(Cc3ccccc3)c2c1,13.7
12,CCOC(=O)c1c(NC(=O)Cc2cccs2)sc(C)c1C,9.47
13,COc1ccccc1NC(=O)N(Cc1ccc2c(c1)OCO2)Cc1nc2ccccc2c(=O)[nH]1,2.05
14,COc1ccc(C(=O)Nc2ccc(S(=O)(=O)N3CCCC3)cc2)c(OC)c1,2.14
15,COC(=O)CSC1=C(C#N)C(c2ccccc2F)CC(=O)N1 (stereo not drawn),9.57
16,O=C(Nc1cc2c(oc1=O)CCCC2=O)c1ccccc1,4.57
17,O=C(c1nc2ccccn2c1CNCCCn1cccn1)N1CCCC1,-1.07
18,CC(=O)Nc1ccc(NC(=O)C2CCN(S(=O)(=O)c3cccc4nonc34)CC2)cc1,-1.2
19,COC(=O)c1ccccc1NC(=O)C1CCN(C(=O)c2cc(OC)c(OC)c(OC)c2)CC1,-0.2
20,C=CCn1c[n+](CC(=O)c2ccc(Br)s2)c2ccccc21.[Br-],10.7
21,CC(=O)c1c(C)[nH]c(C(=O)COC(=O)CCOc2ccc(C)cc2)c1C,1.4
22,CCc1ccc(NC(=O)c2ccc(C3SCC(=O)N3CCc3ccccc3)cc2)cc1 (stereo not drawn),9.81

row,Compound,"hERG current change (%, negative = inhibition) at 1uM [%]"
1,O=C(Cc1cccs1)Nc1ccc(NC(=O)c2ccco2)cc1,11.2
2,O=C(NNC(=O)c1ccccc1OCc1ccccc1Cl)c1csc(N2CCOCC2)n1,14.1
3,CCc1ccc(-c2nn[nH]n2)cc1,9.33
4,Cc1ccc(NC(=O)CSc2nc3c(c(=O)[nH]2)CN(Cc2ccc(F)cc2)CC3)cc1C,1.23
5,Cc1nc2c(ccc3nc(NC(=O)C(c4ccccc4)c4ccccc4)sc32)s1,20.3
6,Cc1c(CNCC(C)c2ccccc2)c(C(=O)O)c(C)n1Cc1ccccc1 (stereo not drawn),-0.168
7,CS(=O)(=O)c1ccc(Cl)c(NC(=O)C2CCCCN2S(=O)(=O)c2ccccc2)c1 (stereo not drawn),-2.17
8,C/C=C/Cn1c(SCCCc2ccccc2)nc2c1c(=O)[nH]c(=O)n2C,-8.47
9,O=C(Nc1cccc2cccnc12)c1cc(F)c(F)cc1Cl,18.6
10,O=C(CNS(=O)(=O)c1ccc2ccccc2c1)OCc1csc(-c2ccccc2)n1,8.11
11,Cc1cc2cccc(C)c2nc1SCC(=O)N(C)c1nc(-c2ccccc2)cs1,11.3
12,CCN(CC)S(=O)(=O)c1ccc(S(=O)(=O)N(CC(=O)Nc2ccccc2)CC2CCCO2)cc1 (stereo not drawn),5.1
13,CCN(CC)CCn1c(NCc2ccco2)nc2ccccc21.Cl,-42.6
14,Nc1n[nH]c(N)c1N=Nc1ccc(Cl)cc1,2.25
15,CC(CS(=O)(=O)c1ccc2c(c1)NC(=O)CS2)C(=O)NCc1ccccc1Cl (stereo not drawn),11.5
16,Cc1cccc(Nc2nc(-c3c(C)nc4ccccn34)cs2)c1,9.23
17,COC(=O)C1=C(C)N(CC2CC2)C(=NCCN2CCOCC2)N[C@H]1c1ccccc1,4.63
18,Cc1cc(OCC(=O)N(C)C)c2c(-c3ccccc3)cc(=O)oc2c1,-7.58
19,COc1ccc2[nH]c3c(=O)n(CCCN4CCOCC4)cnc3c2c1,10.2
20,CCCCc1nc(N2CCOCC2)c(C#N)c2c1COC(C)(C)C2,7.91
21,COc1ccc(NC(=O)CSc2nc(SC)ns2)c(OC)c1,23.1
22,CC(=O)c1cc(F)ccc1OCC(=O)N1CCN(c2ccc(F)cc2)CC1,-7.16

row,Compound,"hERG current change (%, negative = inhibition) at 1uM [%]"
1,CC(=O)Nc1ccc(S(=O)(=O)N2CCC(c3nnc(-c4ccc(C)cc4)o3)CC2)cc1,-2.65
2,Cc1cc(C)n2nc(SCc3nnc(-c4ccccc4Br)o3)nc2n1,6.2
3,COc1ccc(NC(=O)c2sc3nc(C)nc(N4CCN(c5ccccn5)CC4)c3c2C)c(OC)c1,13.8
4,O=C(CCCc1c[nH]c2ccccc12)N1CCCCCC1,1.37
5,COc1ccc(OC)c(S(=O)(=O)Nc2ccccc2F)c1,0.0758
6,CC1=NN(C(N)=S)C(=O)C1N=Nc1ccc(S(N)(=O)=O)cc1 (stereo not drawn),14.9
7,Cc1cc(C)cc(NCc2cc(=O)oc3cc(-c4ccccc4)c(O)cc23)c1,9.07
8,COc1cc(CNc2ccc(N3CCOCC3)cc2)cc(Br)c1OC,-4.22
9,O=c1c2ccccc2ncn1Cc1nc2ccccc2s1,9.43
10,CCN(CC)S(=O)(=O)c1ccc(Cl)c(NC(=O)COC(=O)c2c(C)noc2C)c1,13.1
11,O=C(/C=C/c1ccccc1)Nn1c(-c2cccs2)nc2ccccc2c1=O,0.79
12,CCN(CC)CCCNC(=O)c1cc(-c2ccc(Cl)cc2)on1,-21.1
13,O=C(Nc1ccc(Nc2ccccc2)cc1)N1CCOCC1,7.54
14,CN(Cc1cn[nH]c1-c1cc2ccccc2o1)CC1CCOCC1,9.75
15,CN(C)S(=O)(=O)c1ccc(N2CCCC2)c(C(=O)NCc2ccccc2)c1,8.6
16,O=C(C1CCCN(Cc2ccc(Cl)cc2)C1)N1CCCCC1.O=C(O)C(=O)O (stereo not drawn),-5.93
17,c1ccc2[nH]c(CN3CCCCC3)nc2c1,2.98
18,COc1ccc(C2=NS(=O)(=O)N(C)C(C(=O)N3CCc4ccccc4C3)=C2)cc1OC,5.23
19,O=C(Oc1ccc2ccc(O)cc2c1)c1ccccc1Cl,16.6
20,COC(=O)c1coc(-c2ccc(C)cc2)c1C(=O)OC,7.33
21,Cc1[nH]c(C)c(S(=O)(=O)NCC(C)c2ccccc2)c1C(=O)N1CCCCC1 (stereo not drawn),-0.169
